The campaign covered roughly 410,000 compounds. About 6,400 (1.6%) were called active. This list was built around the results that the source calls inconclusive (neither active nor inactive); the mix of calls is not that of the screen. Calls follow the shape of the dose curve; as a rule, active = well fitted inhibition curve with a large enough effect; inconclusive = small, poorly fitted or top-dose-only effect; inactive = no such curve, though single readings can be large or run the other way. Potencies of inconclusive entries are left out as doubtful fits.
These compounds were tested against Glucagon-like peptide 1 receptor (Homo sapiens) (UniProt P43220) (assay: qHTS of GLP-1 Receptor Inverse Agonists (Inhibition Mode)). Conditions: HEK293 GLP-1R CRE-luciferase, luminescence, 24 h, GLP-1R form is constitutively active; activity change, negative = inhibition: at 38.3 µM (top of the series) unless noted.
Procedure, shortened: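 Stable HEK293 clone (constitutively active GLP-1R + cAMP-response luciferase); 200 cells/uL plated, 12 h pre-culture, compound 24 hr, 37 deg C/5% CO2; detection reagent 12 min RT; luminescence.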
% is scaled to controls: 0 for no effect and ±100 for the full control effect; potency is read from the fitted curve at half-maximal effect; tags tell the direction and shape of the fitted curve.
Also: nearly all actives have a fitted effect of over 55% in size.

Chain of UniProt P43220 (P43220 whole entry, looked up): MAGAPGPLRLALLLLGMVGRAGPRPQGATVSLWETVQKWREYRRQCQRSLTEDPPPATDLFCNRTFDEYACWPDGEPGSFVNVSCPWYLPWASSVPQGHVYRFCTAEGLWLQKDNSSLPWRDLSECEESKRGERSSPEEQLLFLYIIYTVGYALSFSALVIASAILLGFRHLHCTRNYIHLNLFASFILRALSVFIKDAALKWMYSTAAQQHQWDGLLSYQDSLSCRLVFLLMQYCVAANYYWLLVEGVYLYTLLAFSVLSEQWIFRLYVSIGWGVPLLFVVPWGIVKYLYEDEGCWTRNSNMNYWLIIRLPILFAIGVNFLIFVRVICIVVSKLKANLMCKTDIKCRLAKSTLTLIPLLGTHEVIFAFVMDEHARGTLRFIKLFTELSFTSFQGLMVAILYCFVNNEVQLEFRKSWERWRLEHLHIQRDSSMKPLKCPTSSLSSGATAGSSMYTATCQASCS

Row | SMILES | Potency | activity change, negative = inhibition
1 | Cc1cccc(NC(=O)[C@H](NC(=O)[C@@H]2Cc3ccccc3CN2)c2ccccc2)c1 | inconclusive [inhibitor, single point] | –
2 | O=C(c1cccs1)N1CCCc2cc(NS(=O)(=O)c3ccc(Cl)cc3)ccc21 | inconclusive [inhibitor, single point] | –
3 | CCOC(=O)c1c(C)c(C(=O)NCc2cccnc2)c(C)n1C | – | inactive: 0%
4 | COc1ccc(OCC(O)CN2CCc3ccccc3C2)cc1 (centres undefined) | inconclusive [inhibitor, partial curve] | –
5 | CSc1ccccc1C(=O)NC1CCCc2ccccc21 (centres undefined) | inconclusive [inhibitor, partial curve] | –
6 | CCOC(=O)C(=O)NNc1ccc(F)cc1 | active: 0.891 µM | –
7 | CC(C)C(=O)Nc1ccc2c(c1)oc1ccccc12 | inconclusive [inhibitor, partial curve, poor fit] | –
8 | Cc1cccc(C(=O)NCC(c2ccc3c(c2)OCO3)N2CCOCC2)c1 (centres undefined) | – | inactive: 7.67%
9 | Cc1nc2sc(C)c(C)c2c(=O)[nH]1 | – | inactive: 23.5%
10 | N#Cc1ccccc1S(=O)(=O)N1CCN(Cc2cc3c(cc2Br)OCCO3)CC1 | inconclusive [inhibitor, single point] | –
11 | O=C(CN1CCN(Cc2ccc(Cl)cc2)CC1)N/N=C/C=C/c1ccccc1[N+](=O)[O-] | inconclusive [inhibitor, partial curve, poor fit] | –
12 | Cc1ccc(NS(=O)(=O)c2cc(-c3cc(C)no3)ccc2C)c(Cl)c1 | inconclusive [inhibitor, partial curve, poor fit] | –
13 | Cc1ccc(C(=O)NCC(c2ccco2)N2CCCCC2)s1 (centres undefined) | – | inactive: -22.1%
14 | O=[N+]([O-])c1cc(Br)ccc1NS(=O)(=O)c1ccccc1 | inconclusive [inhibitor, partial curve] | –
15 | Clc1cccc(Cc2c(C3CCCCC3)nc3ccc(Br)cn23)c1 | inconclusive [inhibitor, partial curve, poor fit] | –
16 | COc1ccccc1CN1C[C@@H]2C[C@@H](c3ccc(C)cc3)N3CCC[C@@]23C1=O | inconclusive [inhibitor, single point] | –
17 | CC/C(C)=N/Nc1nc(-c2cc3cccc(OC)c3oc2=O)cs1 | inconclusive [inhibitor, partial curve, poor fit] | –
18 | CCOC(=O)C1=C(CN2CCN(c3ccc(F)cc3)CC2)NC(=O)NC1c1cccs1 (centres undefined) | inconclusive [inhibitor, single point] | –
19 | O=C(C=C(O)c1ccc(Cl)cc1)C(=O)NNC(=O)C(O)(c1ccccc1)c1ccccc1 | inconclusive [inhibitor, single point] | –
